Among the data in PMC7819943, “Rice protein-binding microarrays: a tool to detect cis-acting elements near promoter regions in rice” are binding signal values, retold here.

Some of the results follow.

The target in the test is T1, OsWOX13 (Oryza sativa, UniProt Q5QMM3 1-267).
T1 sequence: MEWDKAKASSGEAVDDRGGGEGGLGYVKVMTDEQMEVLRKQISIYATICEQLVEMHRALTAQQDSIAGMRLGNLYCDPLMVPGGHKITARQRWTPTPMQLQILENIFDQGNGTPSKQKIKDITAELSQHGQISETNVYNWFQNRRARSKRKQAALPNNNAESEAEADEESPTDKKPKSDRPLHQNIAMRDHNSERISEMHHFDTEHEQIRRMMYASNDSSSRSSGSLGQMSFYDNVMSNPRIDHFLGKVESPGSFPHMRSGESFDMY
Nature of the test: protein-binding microarray (RPBM); PBS, 2% BSA, 51.3 ng/ul salmon testes DNA, 50 uM zinc acetate, 200 nM TF, 25 C, 1 h; high values mean tight binding. To be noted: protein: recombinant; tags: N-terminal polyhistidine and DsRed monomer fusion (pET32a); label: CyDye5-dUTP incorporated in the synthesized complementary strand; 3' TTTTT single-stranded linker to array surface; dsDNA, one strand shown. The procedure, abridged: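 The binding signal is fluorescence intensity per array feature (arbitrary units). Readings came from an Axon 4000B scanner after a washed, 2% BSA-blocked, double-stranded custom Agilent array had been incubated for 1 h at 25 °C with 200 nM protein and 50 µM zinc acetate. The protein was a Ni–NTA-purified transcription factor fused N-terminally to polyhistidine and DsRed, expressed in E. coli BL21-CodonPlus.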
Turning to “ACGAGCTAGATTATAGTACTAATTACTTGAGGATTCGGTTCGGAGTCACCTAGTGCAG”, the binding signal was 5230 fluorescence intensity (a.u.).

With “CTCACCTTCTCATCTCAATCAACAGTTGAGAGGACAACTGCGGAGTCACCTAGTGCAG”, the binding signal was 5530 fluorescence intensity (a.u.).

Regarding “GAAAATCAATCAGTTGAATTAATCAGTCATGCCAAGAGTCCGGAGTCACCTAGTGCAG”, the binding signal is 27800 fluorescence intensity (a.u.).

For the sequence “CTATAAATTTTCATCATGTATGAACCTGGCTCTTATCAAACGGAGTCACCTAGTGCAG”, the binding signal is 3860 fluorescence intensity (a.u.).

As to “AACCAATCACAACCCTCCACCATTCGCTTTTCCCACCTAACGGAGTCACCTAGTGCAG”, the binding signal is 18000 fluorescence intensity (a.u.).

Consider “GTTACTGTGATTTGTTTCACGAAGCCCCATGTTTTGAGCCCGGAGTCACCTAGTGCAG”, for which the binding signal is 11700 fluorescence intensity (a.u.).

Take “GACAAATTATCTCCAAATCCCCGCAAAATTCACTGCTCCACGGAGTCACCTAGTGCAG”: the binding signal was 15400 fluorescence intensity (a.u.).

For the sequence “GAAATGAGCTATAATTGTTAAACTAGGTGAGGACACCCACCGGAGTCACCTAGTGCAG”, the binding signal was 7630 fluorescence intensity (a.u.).

Turning to “CCCACATGCCAGACTGATTGCCAGTCATGAGCAAGGGTCCCGGAGTCACCTAGTGCAG”, the binding signal was 23900 fluorescence intensity (a.u.).

With “TGCCAGTAATTGTGACGTGACAAGATGCAGGCGTGGTGTGCGGAGTCACCTAGTGCAG”, the binding signal was 29600 fluorescence intensity (a.u.).

As to “ATCAAACTGACTGGCACGCCCGCATCTCACCAATCTTTGGCGGAGTCACCTAGTGCAG”, the binding signal is 13300 fluorescence intensity (a.u.).

For “ATTTGAATTTAAATTTGAATCGGATATGTAAACTTGTGACCGGAGTCACCTAGTGCAG”, the binding signal was 12000 fluorescence intensity (a.u.).

Take “TTGGTGAGTTGACAGAAATTTGTATCATCTTAAAATGAGCCGGAGTCACCTAGTGCAG”: the binding signal was 4960 ± 898 fluorescence intensity (a.u.).

Turning to “AACAAATTTCATTATATGTCACTCAATTCGCACTCCATTTCGGAGTCACCTAGTGCAG”, the binding signal is 5130 fluorescence intensity (a.u.).

Take “ATTGACAGCCACACGATCCGTCACCAAACCTCACGTTTTACGGAGTCACCTAGTGCAG”: the binding signal was 6620 fluorescence intensity (a.u.).

Regarding “CTAGTTAAAGTTTGATTTGTTATTTTCGTTACAACTTGTACGGAGTCACCTAGTGCAG”, the binding signal is 4370 fluorescence intensity (a.u.).

For the sequence “AGCTCTATGATTTTACAATTTAAAATTATATTATATAAAGCGGAGTCACCTAGTGCAG”, the binding signal is 15800 fluorescence intensity (a.u.).

Take “GGTGGATGTGATCGATCACTAAATTAAACCCAGAAACACACGGAGTCACCTAGTGCAG”: the binding signal was 3630 fluorescence intensity (a.u.).

As to “CAGATAATGGGTAATTCAAATGACCAATCCGAATAGCAACCGGAGTCACCTAGTGCAG”, the binding signal is 11800 fluorescence intensity (a.u.).

As for “TCCTGAAAATAATTGGAAAACCATTTTCACTCATGTTTCCCGGAGTCACCTAGTGCAG”, the binding signal is 10700 fluorescence intensity (a.u.).

As for “AGTTTAAATCCCTAAATAGATTATGGCCTTATGGGCTTCACGGAGTCACCTAGTGCAG”, the binding signal is 3440 fluorescence intensity (a.u.).

In the case of “TGTATTTGATTGAAACTGTTCATACTATAAACATGCTGGGCGGAGTCACCTAGTGCAG”, the binding signal is 57900 fluorescence intensity (a.u.).

Take “AAATTGATTGGGGATAAATCTCAAAATTAAGATGAATGAGCGGAGTCACCTAGTGCAG”: the binding signal was 51700 fluorescence intensity (a.u.).

With “ATTTTCTAGGATGATTTGTTGATGGATTTGTGATTTCGTGCGGAGTCACCTAGTGCAG”, the binding signal was 20700 fluorescence intensity (a.u.).

On to “ATTAAATCAATAATTAAATATATTTTCATAATAAATTTGTCGGAGTCACCTAGTGCAG”, for which the binding signal was 23400 fluorescence intensity (a.u.).

As for “AGAAGATTAACCGTTAAACCGTTTTATCAGCCATGGGATGCGGAGTCACCTAGTGCAG”, the binding signal was 11400 fluorescence intensity (a.u.).

Regarding “ACTAATTAAGCTTGGAGAGTCCAGCTGGCCGGAAGGTGTTCGGAGTCACCTAGTGCAG”, the binding signal is 9160 fluorescence intensity (a.u.).

For “TAATTCCCAATCAATTAAACGAGACGAGTCATTAGCAAGCCGGAGTCACCTAGTGCAG”, the binding signal is 27800 fluorescence intensity (a.u.).

On to “TATTTTAATTTTATTATTATTATATGGTTTAGTTAAGATGCGGAGTCACCTAGTGCAG”, for which the binding signal was 4950 fluorescence intensity (a.u.).

“CGCGAGGACAAAGCCAATCAATCTGCTGCCTACTGCGATTCGGAGTCACCTAGTGCAG”: the binding signal is 6900 fluorescence intensity (a.u.).

Regarding “CCTCTTTTGATAGATTCAATTCAAATGGCGGAGGACATTGCGGAGTCACCTAGTGCAG”, the binding signal was 14000 fluorescence intensity (a.u.).

For the sequence “AGGTGACAGAAATTGGTCGGTTCCGTGAAAACCAGACTTTCGGAGTCACCTAGTGCAG”, the binding signal is 8960 fluorescence intensity (a.u.).

For “TATCTTCACCGTGGGTGATTGGGTGTTCCTTAAGCTCCAACGGAGTCACCTAGTGCAG”, the binding signal is 5920 fluorescence intensity (a.u.).

Regarding “ATTTAAATTTTAAATTTTAATAATCGGTGATTTTGTACAGCGGAGTCACCTAGTGCAG”, the binding signal is 24700 fluorescence intensity (a.u.).

Regarding “AGGTTGATTAGAAAAGGATGACCTGACTAGCACCCTCATTCGGAGTCACCTAGTGCAG”, the binding signal was 35800 fluorescence intensity (a.u.).

Regarding “CGCATGATTGAGAAAACATAGGATTTGGATAGGAATGCAACGGAGTCACCTAGTGCAG”, the binding signal is 30800 fluorescence intensity (a.u.).

On to “CATCACACTTGATTGTATCCCAGCAAGCTTGATAGAAAAGCGGAGTCACCTAGTGCAG”, for which the binding signal was 8690 fluorescence intensity (a.u.).

Regarding “GTATAATGAATCTAGATATGATTATATCTAGATTCGTTGTCGGAGTCACCTAGTGCAG”, the binding signal was 4680 fluorescence intensity (a.u.).

As to “ATACGATTGCTGTTTATATAAGCTGCTGGTGAACCAGCGTCGGAGTCACCTAGTGCAG”, the binding signal was 3180 fluorescence intensity (a.u.).

In the case of “GGATGACGTTGCATCAAATGATTGCAAAGCGCCATAAGTACGGAGTCACCTAGTGCAG”, the binding signal is 3740 fluorescence intensity (a.u.).

Regarding “TAGAATGATTTATATTATGAAACGGAGGGAGTATCTATTACGGAGTCACCTAGTGCAG”, the binding signal is 15200 fluorescence intensity (a.u.).

Turning to “TTTAATTTTGATATTTTGCTATCACCGTCACATAGGACGACGGAGTCACCTAGTGCAG”, the binding signal was 9950 fluorescence intensity (a.u.).

“TGCTTAATTAATTATGTGCTAATGAGGTCTTTCATTTTACCGGAGTCACCTAGTGCAG”: the binding signal is 56100 fluorescence intensity (a.u.).

Consider “GCTAGATTTATATCAGTTCGTAGATATTAAAATTAGGAAGCGGAGTCACCTAGTGCAG”, for which the binding signal was 11800 fluorescence intensity (a.u.).

On to “CAAATTGGCTTCAAGATAAGGTCGTGGAAGCGTGCTACGGCGGAGTCACCTAGTGCAG”, for which the binding signal was 3180 fluorescence intensity (a.u.).

Turning to “CTCAAATTGCATTCCTCTGAACTCTGAAGCAGTCACTCTGCGGAGTCACCTAGTGCAG”, the binding signal is 6170 fluorescence intensity (a.u.).

For the sequence “GCTCCAATTTGGCAAATTCTGTTTATTTTCTTTTGGGATTCGGAGTCACCTAGTGCAG”, the binding signal was 6480 fluorescence intensity (a.u.).

For “AATTAATACTTAATTAATTATGCAATAATAACTGTTTCGTCGGAGTCACCTAGTGCAG”, the binding signal was 24800 fluorescence intensity (a.u.).

Regarding “GGGAGTAATTGAATATGCCTTTTGGGCTGCCATCTGCCCACGGAGTCACCTAGTGCAG”, the binding signal was 26800 fluorescence intensity (a.u.).

In the case of “AAAGATTGGGGAAACCAGGCCTTACTTTCGCTTCACCGAGCGGAGTCACCTAGTGCAG”, the binding signal is 7520 fluorescence intensity (a.u.).

In the case of “AGTAAAATGATTTGTAGTGTTAATAATAAAGAATAAATTACGGAGTCACCTAGTGCAG”, the binding signal was 10000 fluorescence intensity (a.u.).

For “ATTAACAGGTTTTACCAATAAATACTTCTTTATTTATTATCGGAGTCACCTAGTGCAG”, the binding signal was 4310 fluorescence intensity (a.u.).

As for “TATGGGTAGGATTGACATTTCACATCGTCAGATCAGATCACGGAGTCACCTAGTGCAG”, the binding signal was 8760 fluorescence intensity (a.u.).

For “AACTTAATTGACGACTCTTCGGGATTAGGATCGTGGACTACGGAGTCACCTAGTGCAG”, the binding signal is 50600 fluorescence intensity (a.u.).
